Results published in PubChem BioAssay AID1346428 (National Center for Advancing Translational Sciences (NCATS), 2018).
The campaign covered roughly 48,000 compounds. About 1,200 (2.5%) were called active. Inconclusive results (about 2%) are left out.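 The calls were made as follows: active = activation of at least 60% and not above a set upper limit (about 1 call in 100 departs from these limits); inconclusive = activation of 40% to 60%, or above that upper limit; inactive = activation under 40%.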 The list shows a part of the results.

These molecules were tested against Probable G-protein coupled receptor 32 (Homo sapiens) (UniProt O75388) (assay: qHTS for Agonists of Human Resolvin D1 Receptor DRV1). Conditions: CHO-K1 GPR32 beta-arrestin PathHunter luminescence, 90 min; at 76.9 µM; stronger effect = higher value; zero percent set by DMSO-only wells.
Procedure, shortened: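 PathHunter enzyme-fragment complementation, CHO-K1 GPR32 stable line; 2,500 cells/well, overnight attach; cpd 90 min 37 °C 5% CO2; detection reagent 1 h RT; chemiluminescence. DMSO = EC0.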
Also: 0% is about no effect.

UniProt O75388, sequence (O75388 whole entry, looked up, the tested form may be a part): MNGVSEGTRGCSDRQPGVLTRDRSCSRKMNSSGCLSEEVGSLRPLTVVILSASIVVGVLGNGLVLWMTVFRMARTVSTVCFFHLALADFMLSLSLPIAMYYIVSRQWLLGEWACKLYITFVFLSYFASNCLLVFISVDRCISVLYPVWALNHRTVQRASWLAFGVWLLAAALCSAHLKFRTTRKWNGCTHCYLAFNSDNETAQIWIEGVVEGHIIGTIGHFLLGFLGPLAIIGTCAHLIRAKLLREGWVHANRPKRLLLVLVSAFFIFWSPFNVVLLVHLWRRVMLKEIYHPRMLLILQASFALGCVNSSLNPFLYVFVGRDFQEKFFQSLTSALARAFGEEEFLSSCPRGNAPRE

activation, inactive:
CCCCNC(=O)C1CCCN(S(=O)(=O)CCC)C1 (stereo not drawn) -5.91%, CCc1nn(CC(=O)NC2CC2)c(=O)c2cc3c(OC)cccc3n12 -0.777%, COc1ccc(-n2ncc3c(NCCCOC(C)C)ncnc32)cc1 -3.7%, COc1cccc(Cn2cc(C(=O)c3ccccc3)c(=O)c3cc4c(cc32)OCO4)c1 8.47%, OCCCc1ccccc1 -5.44%, COc1cc(NC(=O)Cn2c(=O)n(CC3CCC(C(=O)NCCc4ccccc4)CC3)c(=O)c3ccccc32)cc(OC)c1 (stereo not drawn) -2.71%, COc1cc2cc(CNc3ccccc3)c(=O)n(CC(=O)Nc3cccc(Cl)c3C)c2cc1OC -16.9%, CO/N=C(/C(=O)N[C@@H]1C(=O)N2C(C(=O)OCOC(=O)C(C)(C)C)=C(C)CS[C@H]12)c1csc(N)n1 -8.36%, Cc1ccc(NCc2cccn2-c2nnc(N3CCC(C(=O)NCCc4ccc(Cl)cc4)CC3)s2)cc1 -34%, CCc1ccc(C(=O)c2cn(CC(=O)Nc3ccc4c(c3)OCCO4)c3ccc(F)cc3c2=O)cc1 7.19%, CCc1nn2c(=O)cc(COC(=O)c3cccc(NC(=O)CCc4ccccc4)c3)nc2s1 -15.5%, COc1ccc(-n2c(C)nc3c(cnn3-c3ccc(F)cc3)c2=O)cc1 21.2%, CCCCN(CC)CCCNC(=O)c1c(C)oc2ncnc(N3CCOCC3)c12 -11.7%, CCn1cc(/C=C(\NC(=O)c2ccc(OC)cc2)C(=O)NCCCn2ccnc2)c2ccccc21 8.79%, COc1ccccc1CNC(=O)C1CCN(c2nc3ccc(Cl)cc3[nH]2)CC1 -9.09%, COc1cc2c(=O)n(CCC(=O)NCC3CCCO3)c(=O)n(CC(=O)Nc3ccccc3C)c2cc1OC (stereo not drawn) -9.9%, CCc1nn(CC(=O)NCCc2ccc(OC)cc2OC)c(=O)c2cc3occc3n12 -31.9%, CCCCc1ccc(-n2nc3cc(C)c(NC(=O)c4ccc(C#N)cc4F)cc3n2)cc1 -6.39%, CCOc1ccccc1Nc1nc2ccccc2c2nncn12 -4.86%, COc1cccc2c1cc1c(=O)n(CC(=O)N3CCN(c4cccc(C)c4C)CC3)nc(C)n12 -9.77%, CCc1cccc(NS(=O)(=O)c2c(C)[nH]c(=O)[nH]c2=O)c1 11.1%, CC(=O)c1c(C)oc2ccc(N(C(=O)Oc3ccccc3)S(=O)(=O)c3ccc(Cl)cc3)cc12 5.37%, Cc1ccc(Cn2nnc3c(=O)[nH]c(C4CCN(C(=O)Cc5ccccc5F)CC4)nc32)cc1 -25.5%, Cc1ccc(CNC(=O)C2CCN(S(=O)(=O)N3CCCCC3)CC2)cc1 -4.94%, COc1ccc(CCNC(=O)CCc2c(C)nc3c4c(C)cc(C)nc4nn3c2C)cc1OC 0.219%, CCOc1ccc(CNC(=O)c2ccc3oc(=O)n(Cc4ccccc4)c3c2)cc1 -5.97%, COc1ccc2c(c1)cc(CNc1ccc(OC)c(OC)c1)c(=O)n2CC(=O)Nc1ccccc1C -38.6%, Fc1ccc(N2CCN(c3nc4ccccc4c4nc(-c5ccccc5)nn34)CC2)cc1 0.879%, CC1CCN(S(=O)(=O)c2ccc3c(c2)CCN3C(=O)Nc2ccccc2Br)CC1 -22.3%, COc1ccc(OCC(=O)Nc2ccc(-c3nc4cc(C)cc(C)c4o3)cc2)cc1 -4.1%, Cc1ccc(S(=O)(=O)Nc2cccc(-c3ccc(N4CCC(C)CC4)nn3)c2)s1 2.09%, Cc1ccc(NC(=O)C2CCCN(S(=O)(=O)c3ccc4[nH]c(=O)ccc4c3)C2)cc1Cl (stereo not drawn) -7.23%, COc1ccc(CC(=O)Nc2nc3c(s2)CC(C)CC3)cc1 (stereo not drawn) 47.8%, COc1ccc2c(c1)c1c(c(=O)n(CCc3ccccc3)c(=O)n1Cc1cccc(Cl)c1)n2C 8.64%, CC(=O)Nc1cccc(NC(=O)c2cc3c(=O)n4cccc(C)c4nc3n2C)c1 7.77%, O=C(NCc1cccc(Cl)c1)c1c2c(nc3ccccc13)C(=O)N(C1CCCCC1)C2 -11.3%, CC1CN(C(=O)N2CCC(C(=O)NCCCc3ccccc3)CC2)c2cc(Cl)ccc2O1 (stereo not drawn) 22.1%, CCOc1ccccc1Nc1ncnc2c1cnn2-c1ccc(C)cc1 12%, CCCn1cc(S(=O)(=O)c2ccc(C)cc2)c(=O)c2cc(F)c(N3CCCC3)cc21 -1.89%, COc1cc(NC(=O)c2ccc(C)c(Cl)c2)ccc1NC(=O)c1cc2ccccc2o1 -8.08%, O=C(Nc1ccc(-c2nc3cc(Cl)ccc3o2)cc1)c1cc2ccccc2o1 15.9%, COc1ccc(CNC(=O)c2ccc3nc(-c4ccc(F)cc4)c(-c4ccc(F)cc4)nc3c2)cc1 -8.11%, CCC1(C)Cc2c(sc3nc(SC)n(-c4ccc(C)cc4)c(=O)c23)CO1 (stereo not drawn) -8.04%, Cc1nnc(NC(=O)c2ccccc2)s1 -2.83%, c1ccc(C(NCCNC(c2ccccc2)c2ccccc2)c2ccccc2)cc1 -36.3%, Cc1ccc(NC(=O)c2ccccc2Br)c(C(=O)c2ccccc2)c1 -13.7%, Cc1cc(NC(=O)CCNS(=O)(=O)c2cccc3nsnc23)ccc1Br 33.4%, COc1ccc(Cn2c(SCc3ccc(C(=O)NC(C)c4ccccc4)cc3)nc3cccnc32)cc1 (stereo not drawn) 20.5%, CC1CCN(c2nc3ccc(C(=O)NCc4ccccc4)cc3s2)CC1 7.73%, CCc1ccc(S(=O)(=O)c2nnn3c2nc(Nc2ccc(NC(C)=O)cc2)c2sccc23)cc1 -8.35%, CCOc1ccc(N(Cc2ccccc2)C(=O)c2nc(S(C)(=O)=O)ncc2Cl)cc1 -2.59%, Cc1cccc(N2CCN(C(=O)CS(=O)(=O)Cc3nc(-c4ccccc4C)oc3C)CC2C)c1 (stereo not drawn) 34.1%, CCOC(=O)CNC(=O)N1CCN(c2nnc(C)c3c(C)n(-c4ccc(Cl)cc4)nc23)CC1 -1.44%
